The values below come from a collection of fitness landscapes (doi:10.1126/science.1257360).

The list shows a part of the results.

B1: PhoQ; a variant is named by its letters at X, in order, P23837 (parent)
chain: MKKLLRLFFPLSLRVRFLLATAAVVLVLSLAYGMVALIGYSVSFDKTTFRLLRGESNLFYTLAKWENNKLHVELPENIDKQSPTMTLIYDENGQLLWAQRDVPWLMKMIQPDWLKSNGFHEIEADVNDTSLLLSGDHSIQQQLQEVREDDDDAEMTHSVAVNVYPATSRMPKLTIVVVDTIPVELKSSYMVWSWFIYVLSANLLLVIPLLWVAAWWSLRPIEALAKEVRELEEHNRELLNPATTRELTSLVRNLNRLLKSERERYDKYRTTLTDLTHSLKTPLXXLQXXLRSLRSEKMSVSDAEPVMLEQISRISQQIGYYLHRASMRGGTLLSRELHPVAPLLDNLTSALNKVYQRKGVNISLDISPEISFVGEQNDFVEVMGNVLDNACKYCLEFVEISARQTDEHLYIVVEDDGPGIPLSKREVIFDRGQRVDTLRPGQGVGLAVAREITEQYEGKIVAGESMLGGARMEVIFGRQHSAPKDE

In the assay the parent is B1. Put plainly: enrichment ratio after two sorts for PhoP signalling (ratio (wild type AVST 3.29)); higher = more functional. Conditions: with PhoP (E. coli).
YYEQ: the enrichment ratio is not above 0.25.
On to KHPP, for which the enrichment ratio was not above 0.25.
With HIPA the figure was not above 0.25; with ENCL, not above 0.25.
With HSYG the figure was not above 0.25.
With DTQL, the enrichment ratio is not above 0.25.
As for TITC, the enrichment ratio came out at 12.2.
For the variant KPGD, the enrichment ratio is not above 0.25.
DWYQ: the enrichment ratio is not above 0.25.
With VKNN the figure was not above 0.25.
Regarding KKDC, the enrichment ratio is not above 0.25.
For TLES, the enrichment ratio is not above 0.25.
As to IVLN, the enrichment ratio was not above 0.25.
Turning to LRDG, the enrichment ratio was not above 0.25.
Take SHQG: the enrichment ratio was not above 0.25.
FIFF: the enrichment ratio is not above 0.25.
With MNFH, the enrichment ratio came out at 0.752.
As for LVQI, the enrichment ratio was not above 0.25.
As for SMRH, the enrichment ratio is not above 0.25.
Regarding VMAA, the enrichment ratio is not above 0.25.
Take WHSS: the enrichment ratio was not above 0.25.
With YLQP the figure was not above 0.25; with LAMV, 1.74; with WAAS, not above 0.25.
On to NFYT, for which the enrichment ratio was not above 0.25.
As to LSFE, the enrichment ratio is not above 0.25.
Take YFTS: the enrichment ratio is not above 0.25.
As for DYNR, the figure is not above 0.25.
As to INVI, the enrichment ratio is not above 0.25.
As to RHSR, the enrichment ratio is not above 0.25.
With SRDT, the enrichment ratio was not above 0.25.
With SGEI the figure was not above 0.25; with MHSH, not above 0.25; with LAQG, not above 0.25.
Regarding LKCS, the enrichment ratio was not above 0.25.
Take SISN: the enrichment ratio is 10.9.
On to KRWA, for which the enrichment ratio was not above 0.25.
In the case of TMTK, the enrichment ratio worked out at 6.16.
With PCKF the figure was not above 0.25; with EEAF, not above 0.25.
As for IVFE, the figure is not above 0.25.
Turning to MQMS, the enrichment ratio is not above 0.25.
In the case of MPMC, the enrichment ratio was not above 0.25.
Turning to IMDI, the enrichment ratio was not above 0.25.
Turning to FWAP, the enrichment ratio is not above 0.25.
Consider FGGN, for which the enrichment ratio was not above 0.25.
As for TNLK, the enrichment ratio is not above 0.25.
On to AWFR, for which the enrichment ratio is not above 0.25.
In the case of NKST, the enrichment ratio was not above 0.25.
As for RGHA, the enrichment ratio is not above 0.25.
With ESED, the enrichment ratio was not above 0.25.
MAPT: the enrichment ratio is not above 0.25.
With VVCY the figure was not above 0.25; with PDPK, not above 0.25.
On to IGRC, for which the enrichment ratio is not above 0.25.
Regarding DYDG, the enrichment ratio is not above 0.25.
With SLVG, the enrichment ratio came to 2.81.
On to QHMV, for which the enrichment ratio is not above 0.25.
Turning to PKWP, the enrichment ratio is not above 0.25.
For the variant WRWI, the enrichment ratio is not above 0.25.
As for ARED, the figure is not above 0.25; as for YQEH, not above 0.25.
DEFT: the enrichment ratio was not above 0.25.
As for DLCH, the enrichment ratio is not above 0.25.
As to KDGC, the enrichment ratio is not above 0.25.
For YVPV, the enrichment ratio is not above 0.25.
As for QENH, the figure is 70.4; as for MEFG, 5.56.
YQLD: the enrichment ratio was not above 0.25.
Turning to DGYK, the enrichment ratio was not above 0.25.
As to AIYT, the enrichment ratio came out at 0.296.
As for ARTK, the figure is not above 0.25.
Take YTFD: the enrichment ratio is not above 0.25.
With PPYG the figure was not above 0.25.
As for LTRH, the figure is not above 0.25; as for GVMI, 5.36; as for FHMM, not above 0.25.
As for MHFY, the enrichment ratio is not above 0.25.
As to SVGN, the enrichment ratio is 3.41.
As for NKLP, the figure is not above 0.25.
Regarding LLFR, the enrichment ratio was not above 0.25.
As to YHQF, the enrichment ratio is not above 0.25.
As for KIKN, the enrichment ratio was not above 0.25.
For the variant IVLG, the enrichment ratio is not above 0.25.
Regarding LGYL, the enrichment ratio amounted to 6.08.
Regarding LKIH, the enrichment ratio was not above 0.25.
Take WMHH: the enrichment ratio is not above 0.25.
Regarding PWPV, the enrichment ratio was not above 0.25.
Turning to IFYR, the enrichment ratio was not above 0.25.
In the case of APCY, the enrichment ratio is not above 0.25.
As for WFAE, the figure is not above 0.25.
In the case of PRAD, the enrichment ratio is not above 0.25.
As to LMDV, the enrichment ratio was not above 0.25.
On to FGDM, for which the enrichment ratio was not above 0.25.
Consider DLFY, for which the enrichment ratio is not above 0.25.
As for TSGS, the figure is 8.89; as for KAWH, not above 0.25.
For the variant RNHM, the enrichment ratio is not above 0.25.
Turning to SASH, the enrichment ratio was determined as 12.2.
Consider LWTQ, for which the enrichment ratio is not above 0.25.
For NKGA, the enrichment ratio was not above 0.25.
Take EMDL: the enrichment ratio was not above 0.25.
Turning to LSVD, the enrichment ratio was determined as 0.372.
For GCFH, the enrichment ratio was not above 0.25.
Turning to EMHS, the enrichment ratio is not above 0.25.
With MNYR, the enrichment ratio was not above 0.25.
In the case of EEKL, the enrichment ratio was not above 0.25.
As for HTHD, the figure is not above 0.25; as for KQCT, not above 0.25; as for LPAK, not above 0.25.
WLLQ: the enrichment ratio was not above 0.25.
Take SECI: the enrichment ratio was found to be 28.3.
For the variant VLWQ, the enrichment ratio is not above 0.25.
As for YGDM, the figure is 0.798; as for GHKT, not above 0.25; as for DARR, not above 0.25.
As for NDAD, the figure is not above 0.25.
As for QDTK, the enrichment ratio is not above 0.25.
Turning to TWYA, the enrichment ratio is not above 0.25.
As for HDAT, the figure is not above 0.25; as for QVKD, not above 0.25.
For NPDS, the enrichment ratio was not above 0.25.
As for SLLV, the enrichment ratio amounted to 6.62.
On to YPNV, for which the enrichment ratio was not above 0.25.
On to GASE, for which the enrichment ratio is not above 0.25.
Regarding NTIP, the enrichment ratio is not above 0.25.
With LWME the figure was not above 0.25.
For the variant DYIH, the enrichment ratio was not above 0.25.
For KCCQ, the enrichment ratio is not above 0.25.
For the variant SGIP, the enrichment ratio was not above 0.25.
Take LPWE: the enrichment ratio is not above 0.25.
In the case of REIR, the enrichment ratio was not above 0.25.
As to SAMA, the enrichment ratio turned out to be 12.3.
As to SGDI, the enrichment ratio was not above 0.25.
For LMCQ, the enrichment ratio was not above 0.25.
In the case of NIGG, the enrichment ratio was not above 0.25.
Turning to QHMY, the enrichment ratio was not above 0.25.
Consider EKFV, for which the enrichment ratio was not above 0.25.
In the case of RFML, the enrichment ratio was not above 0.25.
As to FVLM, the enrichment ratio was determined as 8.14.
For DNRM, the enrichment ratio is not above 0.25.
With GWPL, the enrichment ratio was not above 0.25.
For the variant PLHW, the enrichment ratio was not above 0.25.
Turning to LNGS, the enrichment ratio was not above 0.25.
In the case of SVFS, the enrichment ratio was not above 0.25.
FARK: the enrichment ratio was not above 0.25.
In the case of DKKM, the enrichment ratio is not above 0.25.
For RSWA, the enrichment ratio is not above 0.25.
For SVME, the enrichment ratio was found to be 1.42.
TNTG: the enrichment ratio was 5.72.
With PDTP the figure was not above 0.25; with NFKQ, not above 0.25.
As for HPAN, the figure is not above 0.25.
